Measurements: patent publication US5227384A, “5-substituted [4,5-c] imidazopyridines and pharmaceutical use thereof” (G. D. Searle & Co., priority 1991, dated 1993)

Target: PAF receptor (Human Platelet Membrane Receptors) (Homo sapiens, UniProt P25105)
Assay: Inhibition of ^3 H-PAF Binding to Human Platelet Membrane Receptors
Settings: for inhibition at 50 µM: read-out: Inhibition of ^3 H-PAF Binding to Human Platelet, % inhib; for IC50: read-out: Inhibition of ^3 H-PAF Binding to Human Platelet (IC50) μM, 0.75 nM ^3 H-PAF, 24° C., 30 minutes
Method: Inhibition of ^3 H-PAF Binding to Human Platelet Membrane Receptors
Receptor Preparation: Ten units of in-dated human packed platelets, each containing 45-65 ml platelet rich-plasma, were purchased from a commercial blood bank. Disposable plasticware was used throughout for receptor preparation. The units were pooled and a 1 ml aliquot was removed for determination of platelet concentration, using a Coulter Counter. The remaining platelet rich plasma was dispensed into 50 ml conical tubes and centrifuged at room temperature for 15 minutes at 3000 RPM (2300×g).Plasma was decanted and the platelets were resuspended in 35 ml of buffer 10 mM Trizma 7.0, 2 mM EDTA (dipotassium salt), and 150 mM KCl) and transferred to fresh tubes, which were centrifuged again as above. The platelets were washed 3 times, avoiding contaminating erythrocytes at the bottom of the pellets. Pellets were consolidated at each step, and by the last wash with EDTA/KCl buffer, most of the erythrocytes were in 1 tube. The pellets were resuspended in buffer containing 10 mM Trizma 7.0 with 10 mM CaCl2. Following centrifugation, the buffer was decanted and the pellets were resuspended in the CaCl2 buffer, avoiding erythrocyte contamination by recovering less than 100% of the platelet pellets. The resuspended platelets were dispensed in 8-10 ml aliquots into Corex tubes and disrupted by three cycles of freezing (dry ice/ethanol) and thawing (24° C.). The tubes were centrifuged at 40,000×g for 20 minutes at 4° C. Supernatants were decanted and each pellet was resuspended in 5-7 ml 10 mM Trizma 7.0. All resuspended pellets were pooled and aliquots of about 1200 ml were dispensed into 1.5 ml microfuge tubes and frozen at -70° C. Protein content was determined by a fluorescamine protein assay.
Assay Methods: Receptor Characterization--Each receptor preparation was evaluated to determine the number of receptor populations, the number of PAF receptor equivalents/mg protein and the dissociation constant (KD) for PAF binding. This required 2-3 experiments in which the protein concentration was held constant and the ^3 H-PAF ligand concentration was varied from approximately 0.10-2.5 nM and the data was analyzed by Scatchard methodology. Total incubation volume was 250 ml for these procedures and incubations were conducted at 24° C. for 30 minutes. For further experimentation, total incubation volumes are 500 ml. Protein and ligand concentrations were adjusted to give 0.075 nM receptor equivalents in the presence of 0.75 nM ^3 H-PAF. Each receptor preparation was then used to determine the dose--response displacement relationship of unlabeled PAF and the PAF antagonist, triazolam. As long as the KD value and IC50 values for PAF and triazolam were consistent with similar data collected from past receptor preparations used in the assay, the new receptor preparation was used for evaluating compounds.
Assay Methods: Routine Assay of Compounds--The compounds were weighed precisely and solubilized in quantities of DMSO such that a 5 ml aliquot in the incubate would deliver the desired compound concentration. Compounds tested for the first time in this assay were evaluated at a concentration of 50 mM in the incubation medium. All compounds were generally solubilized in DMSO for about 2 hours prior to assay. Triazolam was always included in each screening assay as a compound inhibition control. A standard concentration of 50 mM inhibited ^3 H-PAF binding by approximately 50%. Nonspecific binding control solution was made by drying to completion about 26.2 ml unlabeled PAF under a stream of argon. PAF was resolubilized in 1000 ml DMSO. When delivered in a 5 ml aliquot, the final concentration of 1 mM PAF in the incubate exceeded by 1000-fold the concentration of ^3 H-PAF.
All buffers containing proteins were made at room temperature on the day of assay. Assay buffer was prepared by adding 125 mg human albumin to 25 ml of stock buffer (10 mM Trizma 7.4 with 20 mM CaCl2). […]

Sequence of UniProt P25105 (P25105 whole entry): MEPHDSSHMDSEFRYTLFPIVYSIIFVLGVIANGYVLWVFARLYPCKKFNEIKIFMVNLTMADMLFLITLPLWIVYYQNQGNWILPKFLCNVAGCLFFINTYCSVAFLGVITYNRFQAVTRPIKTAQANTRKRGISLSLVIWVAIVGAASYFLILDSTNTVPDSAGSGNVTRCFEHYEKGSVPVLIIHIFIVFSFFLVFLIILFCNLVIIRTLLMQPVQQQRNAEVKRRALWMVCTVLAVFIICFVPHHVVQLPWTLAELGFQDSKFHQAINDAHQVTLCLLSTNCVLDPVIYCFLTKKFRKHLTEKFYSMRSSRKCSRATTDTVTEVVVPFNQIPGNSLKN

With `CC(C)N(C(=O)c1cccc(Cn2ccc3ncnc-3c2)c1)C1CCCCC1` [5-[3-(N-isopropyl-N-cyclohexylcarboxamido)benzyl]imidazo[4,5-c]pyridine] the inhibition at 50 µM was 26.1%.

Work on `CN(C(=O)c1cccc(Cn2ccc3ncnc-3c2)c1)C1CCCCC1` [5-[3-(N-methyl-N-cyclohexylcarboxamido)benzyl]imidazo[4,5-c]pyridine] yielded an inhibition at 50 µM of 38%.

`COc1cc(C(=O)N(C2CCCC2)C2CCCC2)ccc1Cn1ccc2ncnc-2c1` [5-[4-(N,N-dicyclopentylcarboxamido)-2-methoxybenzyl]imidazo[4,5-c]pyridine] showed an IC50 of 0.055 µM.

In the case of `Cc1nc2ccn(Cc3ccc(C(=O)N(C4CCCC4)C4CCCC4)cc3)cc-2n1` [5-[4-(N,N-dicyclopentylcarboxamido)benzyl]-2-methylimidazo[4,5-c]pyridine], the inhibition at 50 µM is reported as 70.8%.

Work on `CC(C)CN(C(=O)c1ccc(Cn2ccc3ncnc-3c2)cc1)C1CCCCC1` [5-[4-(N-isobutyl-N-cyclohexylcarboxamido)benzyl]imidazo[4,5-c]pyridine] yielded an IC50 of 2.82 µM.

In the case of `CC(C)N(C(=O)c1ccc(Cn2ccc3ncnc-3c2)c(F)c1)C1CCCCC1` [5-[4-(N-isopropyl-N-cyclohexylcarboxamido)-2-fluorobenzyl]imidazo[4,5-c]pyridine], the IC50 is reported as 0.442 µM.

Work on `CCC(C)N(C(=O)c1ccc(Cn2ccc3ncnc-3c2)cc1)C1CCCCC1` (stereo not drawn) [5-[4-(N-sec.butyl-N-cyclohexylcarboxamido)benzyl]imidazo[4,5-c]pyridine] yielded an IC50 of 0.58 µM.

Work on `CC(C)(C)N(C(=O)c1ccc(Cn2ccc3ncnc-3c2)cc1)C1CCCCC1` [5-[4-(N-tert.butyl-N-cyclohexylcarboxamido)benzyl]imidazo[4,5-c]pyridine] yielded an inhibition at 50 µM of 87.7%.

Work on `COc1cc(C(=O)N(C2CCCCC2)C2CCCC2)ccc1Cn1ccc2ncnc-2c1` [5-[4{-(N-cyclopentyl,N-cyclohexyl)carboxamido}-2-methoxybenzyl]imidazo[4,5-c]-pyridine] yielded an IC50 of 0.0302 µM.
